Source: PubChem BioAssay AID1347417 (National Center for Advancing Translational Sciences (NCATS), 2020)
The campaign covered roughly 120,000 compounds. About 5,300 (4.4%) were called active. Inconclusive means that the source gave no clear call. Such entries were picked first, then a sample of the others. The call rests on the fitted dose curve; in most records, active means well fitted inhibition curve with a large enough effect; inconclusive means small, poorly fitted or top-dose-only effect; inactive means no such curve, though single readings can be large or run the other way. Where the call is inconclusive, the potency comes from a doubtful curve fit.

experiment: qHTS Primary assay for Inhibitors of Plasmodium falciparum Dd2 growth in vitro; further: nearly all actives have a fitted effect of over 65% in size;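 on activity, negative = inhibition: plate controls were DMSO vehicle for no effect and reference drug for full effect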; conditions: P. falciparum Dd2 growth, SYBR Green, 72 h; activity, negative = inhibition: at 28.9 µM (top of the series) unless noted; series mostly up to 28.9 µM
Method in brief: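 Readout: SYBR Green fluorescence, 485 nm excitation, 535 nm emission, after ~16 h lysis at 37C. Before that, Dd2-infected red cells (2.5% hematocrit) grew 72 h with compound, 29 uM top final concentration.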
Potency means the concentration at half of the fitted maximal effect; tags describe the fitted curve by direction and shape.

Which Potency does the source give for `CC1CCN(C(=O)c2ccccc2OCC2CCCN(C(C)C)C2)CC1` (stereo not drawn) here?
The Potency was inconclusive: 1.58 µM [inhibitor, partial curve, poor fit].

Which “activity, negative = inhibition” value does the source give for `Cc1ccc(C)c(Nc2nnc(-c3ccc(C)c(S(=O)(=O)N4CCN(C)CC4)c3)c3ccccc23)c1` here?
Its value is inactive: 16.3%.

Which Potency does the source give for `COc1ccc(CN2CCC3(CC2)CC(=O)c2ccc(Cl)cc2O3)cc1` here?
Its Potency is inconclusive: 2.82 µM [inhibitor, single point].

With `Cc1noc(-c2ccc(N3CCN(C/C=C/c4ccccc4)CC3)nc2)n1` as the molecule, how does the Potency read?
Its Potency is inconclusive: 17.8 µM [inhibitor, single point].

Which “activity, negative = inhibition” value does the source give for `Cc1cccc(CCNC(=O)[C@@H]2C[C@@H](O)CN2C2CCNCC2)c1` here?
The value was inactive: -13%.

With `CC(C)NC(=O)C1COC2(CCN(C(=O)c3ccc(Cl)cc3)CC2)N1C(=O)c1cccc(F)c1` (stereo not drawn) as the molecule, how does the Potency read?
The Potency was inconclusive: 11.2 µM [inhibitor, partial curve].

With `O=C(c1cc2ccccc2[nH]1)N1CCC2(CCCCO2)CC1` as the molecule, how does the Potency read?
Its Potency is inconclusive: 5.62 µM [inhibitor, partial curve].

For `O=[N+]([O-])c1cccc(-c2noc([C@@H]3Cc4nc[nH]c4CN3CC3CCCCC3)n2)c1`, which Potency is on record?
Its Potency is active: 14.1 µM.

With `Cc1ccccc1Cc1c(C)nc2c(C(=O)NCCc3noc(-c4ccncc4)n3)cnn2c1C` as the molecule, how does the Potency read?
Its Potency is inconclusive: 1.41 µM [inhibitor, partial curve, poor fit].

For `Cn1c(CN2CCN(c3ncccc3C#N)CC2)nnc1C1CC(N)C1` (stereo not drawn), which “activity, negative = inhibition” value is on record?
The value was inactive: -21.4%.

For `Cc1ccc(C)c(NC(=O)N2CCCC(Cn3cnc4cccnc43)C2)c1` (stereo not drawn), which “outcome” value is on record?
The value was “inactive”.

For `Cc1ccccc1CCNC(=O)c1ccc(NC(=O)N2CC(C)Sc3ccccc32)cc1` (stereo not drawn), which activity, negative = inhibition is on record?
The activity, negative = inhibition was inconclusive: -46.1% [inhibitor] [at 0.594 µM].

For `Cc1ccc([C@H]2C[C@@H](O)[C@@H](O)[C@@H]2NCC(C)(C)O)cc1`, which “outcome” value is on record?
The value was “inactive [at 44.1 µM]”.

For `COc1ccccc1NC(=O)c1sc2nc3c(c(C(F)(F)F)c2c1N)CN(C(C)=O)CC3`, which Potency is on record?
The Potency was inconclusive: 17.8 µM [inhibitor, single point].

With `Cc1ccn2c(Nc3ccccc3C)c(-c3ccc(N4CCOCC4)cc3)nc2c1` as the molecule, how does the Potency read?
The Potency was active: 6.31 µM.

Which “activity, negative = inhibition” value does the source give for `O=C(Cc1ccccc1)N1CCC(O)(c2csc(CN3CCOCC3)n2)CC1` here?
The value was inactive: 0.844% [at 44.1 µM].

Which Potency does the source give for `Fc1ccc(CNc2cc3c(cn2)CN(Cc2ccncc2)CCN3)cc1` here?
Its Potency is inconclusive: 15.8 µM [inhibitor, single point].

With `O=C(Nc1ccc([C@H]2OCC(=O)N(Cc3ccc(F)cc3)[C@@H]2CO)cc1)c1ccccc1` as the molecule, how does the Potency read?
The Potency was inconclusive: 31.6 µM [inhibitor, single point].

Which Potency does the source give for `O=C1CC(c2ccccc2)N(Cc2ccncc2)CCCN(C(=O)Nc2ccccc2F)CCN1` (stereo not drawn) here?
Its Potency is inconclusive: 0.316 µM [inhibitor, full curve].

Which Potency does the source give for `COc1ccc(-c2nc(C(=O)NC3CC3)n3ccccc23)cc1` here?
The Potency was active: 11.2 µM.

Which Potency does the source give for `CCCCN(C)CCNC(=O)C1CCCN(S(=O)(=O)c2cccc3nsnc23)C1` (stereo not drawn) here?
The Potency was active: 5.01 µM.

With `Cc1ccc(C2NC(=O)N(CC(=O)NC(C)CCc3ccccc3)C3=C2C(=O)OC3)cc1` (stereo not drawn) as the molecule, how does the “outcome” value read?
Its value is “inactive”.

For `Cc1ccc(-c2noc([C@@H]3Cc4nc[nH]c4CN3C(=O)Nc3cccc(F)c3)n2)cc1`, which Potency is on record?
The Potency was inconclusive: 10 µM [inhibitor, partial curve, poor fit].

For `COCCc1noc(-c2ccccc2OC2CN(C(=O)CC(C)C)C2)n1`, which Potency is on record?
Its Potency is inconclusive: 8.91 µM [inhibitor, single point].

For `CCCS(=O)(=O)N1CC(Oc2ccc(-c3noc(-c4cccnc4)n3)cc2)C1`, which activity, negative = inhibition is on record?
Its activity, negative = inhibition is inconclusive: -42% [inhibitor].

With `CCN(CC)c1cc(C)c2cc(NC(=O)c3cccc(OC)c3OC)ccc2n1` as the molecule, how does the “activity, negative = inhibition” value read?
Its value is inactive: -27.1%.

For `COCCNC(=O)c1cc(C2CC2)nc2c1c(C1CCCN1)nn2C` (stereo not drawn), which “activity, negative = inhibition” value is on record?
Its value is inactive: -4.74%.

Which Potency does the source give for `Cn1nccc1CN1CCC2(CC1)CC(=O)c1ccccc1O2` here?
The Potency was inconclusive: 3.55 µM [inhibitor, partial curve, poor fit].

Which Potency does the source give for `Oc1ccccc1CN1CCC(n2cc(-c3ccc(F)cc3)nn2)CC1` here?
Its Potency is inconclusive: 10 µM [inhibitor, single point].

For `Cc1cc(C(=O)N2CCCC(n3c(C)cnc3C3CC3)C2)n(C)n1` (stereo not drawn), which “activity, negative = inhibition” value is on record?
Its value is inactive: -16.4%.

Which Potency does the source give for `COc1ccc(Nc2nc3ccccc3nc2NS(=O)(=O)c2ccc(C)cc2)c(OC)c1` here?
The Potency was inconclusive: 8.91 µM [inhibitor, single point].

For `COc1ccc(NC(=O)c2c(OC)cc(=O)n3c2CCCC3)cc1`, which “activity, negative = inhibition” value is on record?
Its value is inactive: -22.1%.

For `C[C@]1(CO)C2CC[C@@H](O)[C@@H](CC(=O)NCc3ccccc3)[C@]2(C)CC[C@H]1OC(=O)Nc1ccccc1` (stereo partly drawn), which “outcome” value is on record?
The value was “inactive”.

Which Potency does the source give for `Cc1nn(-c2ccccc2)c2nc(C3CC3)cc(C(=O)Nc3ccc(F)cc3)c12` here?
Its Potency is inconclusive: 11.2 µM [inhibitor, single point].

With `CCN(CC)C(=O)[C@@H](C)C1CC[C@@]2(C)CC[C@H](NC(=O)c3ccncc3)[C@@H](C)[C@@H]2[C@H]1O` (stereo partly drawn) as the molecule, how does the Potency read?
The Potency was inconclusive: 11.2 µM [inhibitor, single point].

Which Potency does the source give for `CCc1c(C)sc2c1CCN(Cc1ccccc1)C2c1ccccc1` (stereo not drawn) here?
The Potency was active: 4.47 µM.

Which Potency does the source give for `O=C(CCn1cnc2onc(-c3ccc(F)cc3)c2c1=O)Nc1ccc(F)c(Cl)c1` here?
The Potency was inconclusive: 12.6 µM [inhibitor, single point].

For `COc1ccccc1-c1cc(-c2ccc(N3CCOCC3)cc2)c2onc(C)c2n1`, which Potency is on record?
The Potency was inconclusive: 11.2 µM [inhibitor, single point].

With `Cc1cn2c(=O)cc(COc3cccc(NC(=O)c4ccc(C(C)(C)C)cc4)c3)nc2s1` as the molecule, how does the Potency read?
The Potency was inconclusive: 12.6 µM [inhibitor, partial curve].

For `CCOC(=O)C1CCN(CC(=O)Nc2cc(C)c3c(=O)oc4ccccc4c3n2)CC1`, which “activity, negative = inhibition” value is on record?
The value was inactive: 22%.

For `O=C(NCc1ccccc1)c1ccccc1OC1CN(Cc2ccncc2)C1`, which Potency is on record?
The Potency was inconclusive: 2.51 µM [inhibitor, single point].

For `O=C1COCC2(CN(c3ccc(C(F)(F)F)cn3)C2)CN1c1ccccc1F`, which Potency is on record?
The Potency was inconclusive: 14.1 µM [inhibitor, single point].

Which “activity, negative = inhibition” value does the source give for `Cc1ccc(C(=O)N2CCC(N3C(=O)C(OCC4CC4)C34CCOCC4)CC2)cn1` (stereo not drawn) here?
The value was inactive: 7.25%.
